Read-outs that look alike come from different tables or passages of the source.
Legend:
Experiment in all cases: NCI60 screen (SRB), Non-Small Cell Lung Cancer
A549/ATCC = details: Homo sapiens; NCI60 Non-Small Cell Lung Cancer cell line A549/ATCC
From the text: (§1) The results are summarized in Tables S3–S5, Supplementary Information.

EKVX = details: Homo sapiens; NCI60 Non-Small Cell Lung Cancer cell line EKVX
From the text: as §1

HOP-62 = details: Homo sapiens; NCI60 Non-Small Cell Lung Cancer cell line HOP-62
From the text: as §1

NCI-H226 = details: Homo sapiens; NCI60 Non-Small Cell Lung Cancer cell line NCI-H226
From the text: as §1

NCI-H23 = details: Homo sapiens; NCI60 Non-Small Cell Lung Cancer cell line NCI-H23
From the text: as §1

NCI-H332M = test system: NCI-H332M
From the text: as §1

NCI-H460 = details: Homo sapiens; NCI60 Non-Small Cell Lung Cancer cell line NCI-H460
From the text: as §1

NCI-H552 = details: NCI60 Non-Small Cell Lung Cancer cell line NCI-H552
From the text: as §1

HOP-92 = details: Homo sapiens; NCI60 Non-Small Cell Lung Cancer cell line HOP-92
From the text: as §1

C=CC1C(=O)N(c2cc(OC)c(OC)c(OC)c2)C1c1ccc(OC)c(O)c1 (stereo not shown) [Compound 7s, 4-[3-Hydroxy-4-methoxyphenyl]-1-(3,4,5-trimethoxyphenyl)-3-vinylazetidin-2-one]
GI50 (A549/ATCC): < 10 nM
GI50 (EKVX): 25.8 nM
GI50 (HOP-62): < 10 nM
GI50 (NCI-H226): < 10 nM
GI50 (NCI-H23): < 10 nM
GI50 (NCI-H332M; NCI60 Non-Small Cell Lung Cancer cell line NCI-H332M, read-out: GI50): 85.5 nM
GI50 (NCI-H460): 13.1 nM
GI50 (NCI-H552): < 10 nM

C=CC1C(=O)N(c2cc(OC)c(OC)c(OC)c2)C1c1ccc(OC)c(N)c1 (stereo not shown) [Compound 7t, 4-(3-Amino-4-methoxyphenyl)-1-(3,4,5-trimethoxyphenyl)-3-vinylazetidin-2-one]
GI50 (NCI-H332M; NCI-H332M): 64.5 nM

C=CC1C(=O)N(c2cc(OC)c(OC)c(OC)c2)C1c1ccc(OC)c(OP(=O)(O)O)c1 (stereo not shown) [Compound 17b, 2-Methoxy-5-(1-(3,4,5-trimethoxyphenyl)-4-oxo-3-vinylazetidin-2-yl)phenyl dihydrogen phosphate]
GI50 (A549/ATCC): 45.8 nM
GI50 (HOP-62): 90 nM
GI50 (HOP-92): 1780 nM
GI50 (NCI-H226): > 100000 nM
GI50 (NCI-H23): 63.7 nM
GI50 (NCI-H332M; NCI-H332M, read-out: GI50): 90.3 nM
GI50 (NCI-H460): 38.6 nM
GI50 (NCI-H552): 22.7 nM

CCC1C(=O)N(c2cc(OC)c(OC)c(OC)c2)C1c1ccc(OC)c(OP(=O)(O)O)c1 (stereo not shown) [Compound 17c, 5-(3-Ethyl-1-(3,4,5-trimethoxyphenyl)-4-oxoazetidin-2-yl)-2-methoxyphenyl dihydrogen phosphate]
GI50 (A549/ATCC): 38.2 nM
GI50 (HOP-62): 24 nM
GI50 (HOP-92): 97.9 nM
GI50 (NCI-H226): > 100000 nM
GI50 (NCI-H23): 44.4 nM
GI50 (NCI-H332M; NCI-H332M, read-out: GI50): 44.9 nM
GI50 (NCI-H460): 35.2 nM
GI50 (NCI-H552): 14.2 nM

From PMC6630832, “3-Vinylazetidin-2-Ones: Synthesis, Antiproliferative and Tubulin Destabilizing Activity in MCF-7 and MDA-MB-231 Breast Cancer Cells” (Pharmaceuticals, 2019)
